From the supplement of paper PMC3334620
Over roughly 33,000 sequences, “E-score (-0.5 to 0.5)” has its median near -0.032; the highest 2% begin near 0.36. The list shows a part of the results.

Target: T1, Sko1 (UniProt Q02100)
T1 sequence: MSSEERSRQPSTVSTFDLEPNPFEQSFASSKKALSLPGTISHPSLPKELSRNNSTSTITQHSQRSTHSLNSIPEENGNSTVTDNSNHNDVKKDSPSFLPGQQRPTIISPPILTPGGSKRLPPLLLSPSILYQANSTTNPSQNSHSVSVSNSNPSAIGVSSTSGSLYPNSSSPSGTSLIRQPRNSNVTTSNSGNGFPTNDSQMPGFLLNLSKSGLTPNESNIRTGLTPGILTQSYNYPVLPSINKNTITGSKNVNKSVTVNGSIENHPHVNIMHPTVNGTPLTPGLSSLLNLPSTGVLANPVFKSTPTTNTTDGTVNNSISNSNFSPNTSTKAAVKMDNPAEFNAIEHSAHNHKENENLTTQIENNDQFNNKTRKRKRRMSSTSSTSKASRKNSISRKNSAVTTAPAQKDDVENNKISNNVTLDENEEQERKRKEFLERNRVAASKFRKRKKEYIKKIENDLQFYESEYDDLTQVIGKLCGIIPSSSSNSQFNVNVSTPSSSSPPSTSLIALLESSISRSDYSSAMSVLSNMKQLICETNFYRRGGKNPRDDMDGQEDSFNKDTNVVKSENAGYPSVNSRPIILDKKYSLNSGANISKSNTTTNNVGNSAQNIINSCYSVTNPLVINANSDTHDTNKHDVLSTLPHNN
Test: PBM E-score (8-mer binding enrichment) (E-score (-0.5 to 0.5)); higher = stronger / more preferred TF binding; most listed sequences are background and not binding sites
Settings: protein concentration: 200 nM; construct: GST-full length
In short: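 PURExpress in vitro transcription/translation supplied GST-tagged yeast transcription factors, either full-length or DNA-binding domain. Applied at about 100-200 nM to universal all-10-mer Agilent arrays double-stranded by primer extension, the bound protein was detected with fluorescent anti-GST. E-scores, modified Wilcoxon-Mann-Whitney statistics, were given by the Universal PBM Analysis Suite to ungapped eight-base words pooled with their reverse complements after masliner normalisation.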

Sequence | PBM E-score
CATCCCAA | -0.0945
CAGACAGA | -0.0421
GGTACGAC | 0.151
CACTCCGC | -0.261
GCACTCCA | -0.248
ACTTTCAG | -0.00811
GCCGAGAC | -0.218
CATATCTC | 0.133
AAGTACGT | 0.44
CGGGATCA | -0.0763
ATCGCTTG | -0.0875
AGCCCAAT | -0.0554
GTCGGCAC | -0.183
ACGAATGC | 0.231
AGGCAATC | 0.0282
CCTTTGTA | -0.0286
CCACTGGG | -0.0298
ACTTTTCA | 0.0528
AGCACACG | 0.134
AAAATAAC | 0.0938
CACGTGAA | 0.319
CGGACATC | -0.128
CGCCGAAA | -0.047
TATGGAAA | -0.0408
CAGGGTAA | -0.0488

Sequence | PBM E-score
CAGGATCA | -0.0822
CCTACTAG | -0.0336
CGCGGACC | -0.361
ATATGGCG | 0.0962
AGTGGATC | -0.157
GGTCAAGA | -0.0993
ATATCTCC | -0.152
GTGAAGAA | 0.0795
ATGGACAG | -0.148
GTCGAGAA | 0.107
AGGTGCAA | -0.0163
CCCCAAAG | -0.256
GGAAATCA | 0.125
CAACGAAG | -0.0381
ATATGTTG | 0.0568
AAGGCCAG | -0.15
AGCGTACT | -0.0878
CTACCAAG | -0.151
TACTTGAA | 0.222
GCAGTACA | -0.233
AGGGCGGG | -0.163
AGACCAAT | 0.0443
GGATTACA | -0.0365
CGAGAATA | 0.0959
ACACACAC | 0.131

Sequence | PBM E-score
AGTGATAT | 0.121
CATCGGCA | -0.0364
CATCTTGG | 0.0174
CGAAGTAC | 0.0872
GAAGGGGC | -0.24
TGAGAACA | 0.0465
ATCCGCTC | -0.316
AAACGCGA | 0.118
GTCGCGTA | 0.363
ATCGCCAT | 0.0218
AAGCGAGT | 0.0206
ACTTATAG | 0.0178
ATAAAGAC | 0.178
ATTAAAAG | 0.13
AATAGAGG | -0.129
ATCTTACG | 0.322
AAGTTTGG | 0.2
CCGCCGAG | -0.312
AACTGCGG | -0.133
CGACAACG | 0.219
ATTAACGA | 0.196
AACATGTC | 0.0288
GACAGACA | 0.0697
ATTATCTG | 0.128
CTGGAGGC | -0.284

Sequence | PBM E-score
CTTTGCCA | -0.0823
AGTTTATC | 0.00583
ATTGCGGC | -0.158
ATTCGGGA | -0.332
CCATCGTA | 0.282
CCCGGGAA | -0.303
AATTCTTA | -0.0395
ACCGCAAA | 0.12
CCGTAGCA | -0.064
CATTGACG | 0.412
GAACGAAA | 0.00831
AGGTTAAC | 0.108
GGTACTTA | -0.11
ATAGAGTC | -0.0273
ACCTTTGC | 0.0497
CCAGTGGG | -0.107
CCGTCCGA | -0.301
ACACGTCC | 0.214
CCGGGAAG | -0.334
AAGATCGC | 0.0901
AGAGTATG | -0.111
CCAATTTC | -0.101
CGATACAG | -0.166
AAATCGCT | -0.135
CAGTAGCC | -0.275

Sequence | PBM E-score
CCCCGCTC | -0.336
ACGGTCCA | -0.199
GCTATATA | 0.181
CGATCAAC | -0.0422
ACATCACG | 0.314
ACCGCCCC | -0.182
TACACTAA | -0.0348
ATGAGATG | 0.0776
ATGGCCTG | -0.291
AAAGAGCC | -0.0764
CTTTGCTC | -0.0818
AGCTTAAG | 0.0013
TAGCTGAA | 0.0416
GTCTGCAC | -0.118
AGCAAGAA | 0.0698
AGTTCCCG | -0.193
CGCTTCCG | -0.0931
AACTAGGC | -0.0926
CAGTCCTA | -0.171
ACCGGACT | -0.255
CAGCGATG | -0.184
GAGCCAAC | 0.0203
GAGTTGAC | -0.00674
CATCAGAA | 0.24
AGGGCTGC | -0.224

Sequence | PBM E-score
GAAACCCC | -0.221
GGGTTTGA | 0.0269
GTGTGTCA | 0.23
ATTTCGGA | 0.136
GGACACGA | -0.207
ATAACAAT | 0.037
ACCCCCAC | -0.413
TAAGGGGA | -0.104
ATCATCGG | 0.00617
AGAGTCAT | -0.0362
AGCGTCAA | 0.166
GCGCGTTA | 0.0431
ACTTCGAA | 0.142
ATTGACGC | 0.319
CAGTATCC | -0.163
GAACCGAC | -0.0388
CGGATAAC | -0.0495
GGGCGCAC | -0.244
CTCCCTAC | 0.131
CGTGGTCA | 0.0325
ACTCTGGC | -0.218
AATATTAC | 0.257
ATAAAATG | 0.185
AGCGGGAT | -0.0978
ATATCGCA | 0.0492

Sequence | PBM E-score
AAGGACCA | -0.286
GATATGGC | -0.23
ATTTCATG | -0.0667
ATTGAGTA | 0.286
CCGGGAGG | -0.268
CAGAAGGC | -0.165
CGAAATGA | 0.167
CTGTTGGA | -0.137
AGACAGAA | 0.0336
GGAGACTA | -0.125
ACAGATGG | -0.189
ACACGTGT | 0.407
AGGATGAC | 0.166
ATGGTCGA | -0.113
GAACGTCA | 0.456
GGAAGAGA | -0.11
CCGCCAGC | -0.283
CGGTATTA | 0.0413
ACCTCGCC | -0.347
AAAACTGG | -0.0581
TATACATA | 0.319
CGAAGCAC | -0.0588
